Reference: PubChem BioAssay AID504832 (National Center for Advancing Translational Sciences (NCATS), 2011)
“And” between values parts separate entries of the source, which are not always exact repeats. Identical values can stand only once. Among all 310,000 compounds or so, about 18,000 (5.8%) were called active. This list was built around the results that the source calls inconclusive (neither active nor inactive); the mix of calls is not that of the screen. Calls come from the whole dose curve; as a rule, active = well fitted inhibition curve with a large enough effect; inconclusive = small, poorly fitted or top-dose-only effect, or another doubt; inactive = no such curve, though single readings can be large or run the other way. Where the call is inconclusive, the potency comes from a doubtful curve fit.

Experiment: Primary qHTS for delayed death inhibitors of the malarial parasite plastid, 48 hour incubation
Details: P. falciparum luciferase growth in erythrocytes; series mostly up to 28.7 µM
Procedure, shortened: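 In quantitative HTS format, infected erythrocytes bearing luciferase-reporter parasites were treated for a single generation at 37 C. Luminescence after adding detection reagent served as the growth measure.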
Potency is the fitted concentration of half-maximal effect; tags give direction and shape of the fitted curve.

Structure (SMILES) | Potency
CCC(=O)N(Cc1cc(=O)[nH]c2ccccc12)c1ccccc1C | inconclusive: 8.28 µM [inhibitor, single point]
CCOC(=O)c1c(C)[nH]c(C)c1S(=O)(=O)NCC1CCN(Cc2cccc(Cl)c2)CC1 | inconclusive: 10.4 µM [inhibitor, single point]
CN1C2CCC1CC(NC(=O)c1cc(Cl)cc3[nH]cnc13)C2 (configuration not stated) | inconclusive: 18.5 µM [inhibitor, single point]
COc1ccc(-c2noc(N3CCC(C(=O)N(C)c4ccccc4)CC3)n2)cc1 | inconclusive: 10.4 µM [inhibitor, single point]
Cc1nn(Cc2ccccc2)c(Cl)c1/C=N/NC(=O)CNc1cccc(C(F)(F)F)c1 | inconclusive: 4.15 µM [inhibitor, partial curve]
Cc1ccc(-n2c(SCC(N)=O)nnc2-c2ccccn2)cc1 | inactive
CN1CCN(S(=O)(=O)c2cccc(C(=O)Nc3cc(Cl)ccc3N3CCOCC3)c2)CC1 | inconclusive: 16.5 µM [inhibitor, single point]
COc1ccccc1Nc1nc(-c2sc(N)nc2C)cs1 | inactive
COC(=O)c1cc[n+](CC(=O)c2ccccc2)cc1 | inactive
Cc1ccc(/C=C2/Sc3ccc(C(=O)N4CCC5(CC4)OCCO5)cc3NC2=O)cc1 | inconclusive: 5.86 µM [inhibitor, partial curve, poor fit]
N/C(Cc1ccc([N+](=O)[O-])cc1)=N\OC(=O)c1ccccc1F | inactive
CCN1CCN(c2nc3ccccc3nc2C(C#N)C(=O)OC2CCCCC2)CC1 (configuration not stated) | inconclusive: 10.4 µM [inhibitor, partial curve] and inconclusive: 9.28 µM [inhibitor, single point]
COC(=O)C(CCSC)NC(=O)c1cccc([N+](=O)[O-])c1 (configuration not stated) | inactive
CN(C)/C=C1/N=C(c2ccccc2)OC1=O | inactive
O=C(O)CCCCN1C(=O)/C(=C\c2ccc(OCc3ccccc3)c(OCc3ccccc3)c2)SC1=S | inconclusive: 4.65 µM [inhibitor, partial curve, poor fit]
O=[N+]([O-])c1cccc(/C=N/Nc2nc(N3CCCCC3)nc(N3CCCCC3)n2)c1 | inconclusive: 3.7 µM [inhibitor, partial curve, poor fit]
CCN(Cc1ccccc1)C(=O)C1CCN(C(=O)Nc2ccccc2)CC1 | inconclusive: 0.586 µM [inhibitor, full curve, poor fit]
N#Cc1cccc(NC(=O)Cc2ccsc2)c1 | inconclusive: 5.22 µM [inhibitor, single point]
COc1ccccc1Nc1nnc(Cc2ccccc2)c(=O)[nH]1 | inactive
COc1ccc(S(=O)(=O)N2CCN(C(=O)Nc3ccccc3OC)CC2)cc1 | inconclusive: 8.28 µM [inhibitor, single point]
Cc1ccc(-c2cc(-c3c(C)nn(C)c(=O)c3N)[nH]n2)cc1 | inconclusive: 13.1 µM [inhibitor, single point]

Structure (SMILES) | Potency
O=c1cc(CCl)nc2sc3ccccc3n12 | inactive
Clc1ccc(C(Cn2ccnc2)OCc2csc3c(Cl)cccc23)c(Cl)c1 (configuration not stated) | active: 1.04 µM
CCOC(=O)C1(CCOc2ccccc2)CCN(Cc2cccn2-c2cccnc2)CC1 | inconclusive: 3.7 µM [inhibitor, partial curve]
Cc1ccc(S(=O)(=O)N2CCN(C(=O)CCOc3cc(C)ccc3C)CC2)cc1 | inconclusive: 11.7 µM [inhibitor, single point]
Cc1ccc(Cn2ccsc2=NC(=O)COC(=O)c2ccc(NC(=O)CC#N)cc2)cc1 | active: 13.1 µM
C/C(=C1/SC(N2CCCC2)=NC1=O)c1ccc(Br)cc1 | inconclusive: 9.28 µM [inhibitor, single point]
Cc1ccc(NC(=O)CN2C(=O)NC(Cc3c[nH]c4ccccc34)C2=O)cc1 (configuration not stated) | inconclusive: 18.5 µM [inhibitor, single point]
Cc1cccc(NC(=S)Nc2ccc(N3CCOCC3)cc2)c1C | inactive
Cc1ccc(NC(=O)CN2C(=O)NC3(CCCC3)C2=O)c(Cl)c1 | inactive
O=C(C(Cc1ccccc1)n1cccc1)N1CCc2ccccc21 (configuration not stated) | inconclusive: 13.1 µM [inhibitor, single point]
CC(C)N(Cc1ccccc1)C(=O)CN1C(=O)NC2(CCCc3ccccc32)C1=O (configuration not stated) | inconclusive: 2.94 µM [inhibitor, full curve, poor fit]
COc1ccc(NS(=O)(=O)c2ccc(N3CCCC3)c(NC(=S)Nc3cccc(C)c3C)c2)cc1 | inconclusive: 14.7 µM [inhibitor, single point]
CCOC(=O)C1(Cc2cccc(Cl)c2)CCCN(C(=O)C2CC2)C1 (configuration not stated) | inactive
C/C=C/c1ccc(OCC(O)CNCCc2ccc(OC)cc2)c(OC)c1 (configuration not stated) | inconclusive: 10.4 µM [inhibitor, partial curve]
OCC1(CCc2ccccc2)CCCN(CCCc2ccccc2)C1 (configuration not stated) | inconclusive: 18.5 µM [inhibitor, single point]
O=C(NNc1cc(Cl)ccc1Cl)c1cccs1 | inconclusive: 18.5 µM [inhibitor, single point]
CC1=C(CCN2CCN(C(C)C)C(CCO)C2)C(C)(C)CCC1 (configuration not stated) | inconclusive: 13.1 µM [inhibitor, single point]
C#CCOCCOCCOCCNc1nc(N2CCN(C(=O)CCCCCCCCCCNC(=O)[C@H]([C@@H](C)CC)n3cc(CCCCN=C(N)N)nn3)CC2)nc(N2CCN(C(=O)CCCCCCCCCCNC(=O)[C@H](CCCN=C(N)N)n3cc(C[C@@H](C)CC)nn3)CC2)n1 | active: 4.65 µM
O=[N+]([O-])c1ccc(-c2nc(Nc3cccc(O)c3)c3ccccc3n2)cc1 | inconclusive: 10.4 µM [inhibitor, single point]
Cc1ccc(C2=Nc3c(ccc4ccccc34)C(c3ccncc3)=NN2)cc1 | inconclusive: 11.7 µM [inhibitor, single point]
CCC(=O)Nc1cccc(-c2nc3ccccc3c(=O)o2)c1 | inactive
